Laboratory results reported in PubChem BioAssay AID686978 (National Center for Advancing Translational Sciences (NCATS), 2013).
Out of some 420,000 compounds screened, about 64,000 (15%) were called active. The inconclusive results got no clear call from the source; some entries with a clear call stand among them for comparison. The call rests on the fitted dose curve; in most records, active means well fitted inhibition curve with a large enough effect; inconclusive means small, poorly fitted or top-dose-only effect; inactive means flat fitted curve, though single readings scatter. Potencies of inconclusive entries are left out as doubtful fits.
On the % scale 0 is the no-effect control and ±100 the full control effect; potency means the concentration at half of the fitted maximal effect; tags describe the fitted curve by direction and shape.

Experiment: qHTS for Inhibitors of human tyrosyl-DNA phosphodiesterase 1 (TDP1): qHTS in cells in absence of CPT; further: nearly all actives have a fitted effect of over 55% in size
Settings: DT40 Tdp1-/- hTDP1 cells, no CPT, ATP luminescence, 48 h; activity change, negative = growth inhibition: at 46.2 µM (top of the series) unless noted
In short: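 Cells were dispensed at 400 per well, compounds added by pin tool, plates incubated ≥48 hr at 37 °C, then CellTiter-Glo added for 30 min at room temperature before luminescence reading. Line: DT40 Tdp1-/- complemented with hTDP1; camptothecin omitted.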
With `Cc1ccc2nc(-c3ccc(C)c(NC(=O)COc4ccc(Cl)cc4)c3)oc2c1` the Potency was inconclusive [inhibitor, single point].
For `Cc1c(NC(=O)C(C)OC(=O)/C=C/c2ccc3c(c2)OCO3)c(=O)n(-c2ccccc2)n1C` (configuration not stated), the “activity change, negative = growth inhibition” value was inactive: -14.7%.
For `CCCN(C(=O)COC(=O)CNC(=O)c1ccc2ccccc2c1)c1c(N)n(Cc2ccccc2)c(=O)[nH]c1=O`, the “activity change, negative = growth inhibition” value was inactive: -7.16%.
In the case of `COc1ccc2[nH]c(=O)c(CN(C)C(=O)c3cccs3)cc2c1`, the Potency is reported as inconclusive [inhibitor, partial curve, poor fit].
In the case of `C[C@@H]1CN([C@@H](C)CO)S(=O)(=O)c2ccc(Br)cc2O[C@@H]1CN(C)C(=O)c1ccncc1`, the “activity change, negative = growth inhibition” value is reported as inactive: 3.95%.
In the case of `O=C(Nc1nc2c(Br)cccc2s1)C1CC1`, the Potency is reported as inconclusive [inhibitor, single point].
With `COCCN1Cc2cc3cc(C)ccc3nc2SC1=Nc1cccc(OC)c1` the “activity change, negative = growth inhibition” value was inactive: 0.0518%.
With `CCOC(=O)c1cc2c(c(-c3ccccc3)n1)[C@H](CCO)N(S(=O)(=O)C(C)(C)C)C2` the “activity change, negative = growth inhibition” value was inactive: -9.59%.
In the case of `Cc1ccc(-c2nn(-c3ccccc3)cc2CN(Cc2ccccc2)C(=O)c2ccco2)o1`, the Potency is reported as inconclusive [inhibitor, single point].
In the case of `Cc1ccc(S(=O)(=O)/N=C2\C=C(Nc3cccc(C(=O)O)c3)C(=O)c3ccccc32)cc1`, the Potency is reported as inconclusive [inhibitor, partial curve].
In the case of `COc1cccc(C(C(=O)NC(C)(C)C)N(CCc2ccccc2)C(=O)CCC(=O)Nc2cc(C)on2)c1OC` (configuration not stated), the Potency is reported as inconclusive [inhibitor, single point].
For `Nc1nonc1-n1nnc(C(=O)N/N=C/c2ccccc2Cl)c1-c1ccc2c(c1)OCO2`, the “activity change, negative = growth inhibition” value was inactive: -11.9%.
For `CCOC(=O)Cc1csc(SCn2nnc3ccccc3c2=O)n1`, the activity change, negative = growth inhibition was inconclusive: -30% [inhibitor].
In the case of `CN(C(=O)c1cccc(NC(=O)Cc2ccc(NC(=O)C3CCCN(C(=O)C4CCCCC4)C3)cc2)c1)C1CCCCC1` (configuration not stated), the Potency is reported as inconclusive [inhibitor, single point].
In the case of `COc1ccc(N(CC(=O)Nc2ccc(C)c(C)c2)S(=O)(=O)c2c(C)n[nH]c2C)cc1`, the Potency is reported as inconclusive [inhibitor, single point].
For `O=C(CSc1ncc2c(n1)-c1ccccc1N(Cc1ccc(F)cc1)S2(=O)=O)NCCc1ccccc1`, the Potency was inconclusive [inhibitor, partial curve, poor fit].
For `COc1cc2oc(=O)cc(-c3cccc(-c4ccc(C(F)(F)F)cc4)c3)c2c(OC)c1OC`, the Potency was active: 14.6 µM.
